Source: paper PMC9911399, “Two distinct binding modes provide the RNA-binding protein RbFox with extraordinary sequence specificity”
Residue numbers refer to the chain shown, from its start. The list shows a part of the results.

T1: RBFOX1 RRM (Homo sapiens, UniProt Q9NWB1 109-208)
T1 sequence: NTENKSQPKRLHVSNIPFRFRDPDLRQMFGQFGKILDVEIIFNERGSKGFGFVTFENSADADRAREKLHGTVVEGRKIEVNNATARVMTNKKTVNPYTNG

B1: AUAAAAU (DNA:RNA)
RNA: GGGAGACCGGAAUUCAGAUUGUCCAUAAAAUUUAAAUCCCGUCGUAGCCACCA
DNA 1: CAATCTGAATTCCGGTCTCCC
DNA 2: TGGTGGCTACGACGGGATT
B2: GUCGGUG (DNA:RNA)
RNA: B1 RNA with A25G, A27C, A28G, A29G, A30U, U31G
DNA 1: CAATCTGAATTCCGGTCTCCC
DNA 2: TGGTGGCTACGACGGGATT
B3: AUAAGGC (DNA:RNA)
RNA: B1 RNA with A29G, A30G, U31C
DNA 1: CAATCTGAATTCCGGTCTCCC
DNA 2: TGGTGGCTACGACGGGATT
B4: CGGAUUC (DNA:RNA)
RNA: B1 RNA with A25C, U26G, A27G, A29U, A30U, U31C
DNA 1: CAATCTGAATTCCGGTCTCCC
DNA 2: TGGTGGCTACGACGGGATT
B5: GCACCUG (DNA:RNA)
RNA: B1 RNA with A25G, U26C, A28C, A29C, A30U, U31G
DNA 1: CAATCTGAATTCCGGTCTCCC
DNA 2: TGGTGGCTACGACGGGATT
B6: CUUAACU (DNA:RNA)
RNA: B1 RNA with A25C, A27U, A30C
DNA 1: CAATCTGAATTCCGGTCTCCC
DNA 2: TGGTGGCTACGACGGGATT
B7: CCUGAAA (DNA:RNA)
RNA: B1 RNA with A25C, U26C, A27U, A28G, U31A
DNA 1: CAATCTGAATTCCGGTCTCCC
DNA 2: TGGTGGCTACGACGGGATT
B8: AGCACAU (DNA:RNA)
RNA: B1 RNA with U26G, A27C, A29C
DNA 1: CAATCTGAATTCCGGTCTCCC
DNA 2: TGGTGGCTACGACGGGATT
B9: GCACUUC (DNA:RNA)
RNA: B1 RNA with A25G, U26C, A28C, A29U, A30U, U31C
DNA 1: CAATCTGAATTCCGGTCTCCC
DNA 2: TGGTGGCTACGACGGGATT
B10: UGACUAA (DNA:RNA)
RNA: B1 RNA with A25U, U26G, A28C, A29U, U31A
DNA 1: CAATCTGAATTCCGGTCTCCC
DNA 2: TGGTGGCTACGACGGGATT
B11: AAUUCUC (DNA:RNA)
RNA: B1 RNA with U26A, A27U, A28U, A29C, A30U, U31C
DNA 1: CAATCTGAATTCCGGTCTCCC
DNA 2: TGGTGGCTACGACGGGATT
B12: AACUGAU (DNA:RNA)
RNA: B1 RNA with U26A, A27C, A28U, A29G
DNA 1: CAATCTGAATTCCGGTCTCCC
DNA 2: TGGTGGCTACGACGGGATT
B13: CCCUGUU (DNA:RNA)
RNA: B1 RNA with A25C, U26C, A27C, A28U, A29G, A30U
DNA 1: CAATCTGAATTCCGGTCTCCC
DNA 2: TGGTGGCTACGACGGGATT
B14: ACUUUAU (DNA:RNA)
RNA: B1 RNA with U26C, A27U, A28U, A29U
DNA 1: CAATCTGAATTCCGGTCTCCC
DNA 2: TGGTGGCTACGACGGGATT
B15: AUCCGAC (DNA:RNA)
RNA: B1 RNA with A27C, A28C, A29G, U31C
DNA 1: CAATCTGAATTCCGGTCTCCC
DNA 2: TGGTGGCTACGACGGGATT
B16: AAAGUCG (DNA:RNA)
RNA: B1 RNA with U26A, A28G, A29U, A30C, U31G
DNA 1: CAATCTGAATTCCGGTCTCCC
DNA 2: TGGTGGCTACGACGGGATT
B17: GACUAGU (DNA:RNA)
RNA: B1 RNA with A25G, U26A, A27C, A28U, A30G
DNA 1: CAATCTGAATTCCGGTCTCCC
DNA 2: TGGTGGCTACGACGGGATT
B18: AGUGGUU (DNA:RNA)
RNA: B1 RNA with U26G, A27U, A28G, A29G, A30U
DNA 1: CAATCTGAATTCCGGTCTCCC
DNA 2: TGGTGGCTACGACGGGATT
B19: GCUCUUU (DNA:RNA)
RNA: B1 RNA with A25G, U26C, A27U, A28C, A29U, A30U
DNA 1: CAATCTGAATTCCGGTCTCCC
DNA 2: TGGTGGCTACGACGGGATT
B20: AAAUGCC (DNA:RNA)
RNA: B1 RNA with U26A, A28U, A29G, A30C, U31C
DNA 1: CAATCTGAATTCCGGTCTCCC
DNA 2: TGGTGGCTACGACGGGATT

The binders below were run against T1, RBFOX1 RRM (assay: EMSA; HiTS-Eq, 1 nM pool, 10 min; buffer printed only for the single-RNA assays: 10 mM Tris pH 7.5, 150 mM NaCl, 3.4 mM EDTA, 0.001% NP-40, 30 C). Conditions: tags: His6 N-terminal (pET28a); label: 5' 32P.
Procedure, shortened: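 Purified wild-type or mutant RbFox RRM at increasing concentrations was equilibrated with 1 nM of 5′-radiolabelled RNA carrying 7 randomized nucleotides for 10 min in 50 µL. Unbound RNA was separated by 8% native PAGE and sequenced. Relative association constants came from read-count changes of each RNA species compared with the control reaction, normalised to the cognate motif.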
In the case of B1, the binding signal is reported as 0.000429 KA relative to UGCAUGU.
B2 was tested, and the binding signal was 0.0254 KA relative to UGCAUGU.
With B3 the binding signal was 0.00556 KA relative to UGCAUGU.
B4 was tested, and the binding signal was 0.0273 KA relative to UGCAUGU.
With B5 the binding signal was 0.0149 KA relative to UGCAUGU.
In the case of B6, the binding signal is reported as 0.0019 KA relative to UGCAUGU.
With B7 the binding signal was 0.00997 KA relative to UGCAUGU.
For B8, the binding signal was 0.00794 KA relative to UGCAUGU.
B9 was tested, and the binding signal was 0.00902 KA relative to UGCAUGU.
B10 was tested, and the binding signal was 0.00904 KA relative to UGCAUGU.
For B11, the binding signal was 0.00325 KA relative to UGCAUGU.
With B12 the binding signal was 0.00404 KA relative to UGCAUGU.
With B13 the binding signal was 0.00725 KA relative to UGCAUGU.
For B14, the binding signal was 0.00113 KA relative to UGCAUGU.
For B15, the binding signal was 0.00467 KA relative to UGCAUGU.
With B16 the binding signal was 0.00628 KA relative to UGCAUGU.
In the case of B17, the binding signal is reported as 0.0156 KA relative to UGCAUGU.
In the case of B18, the binding signal is reported as 0.0187 KA relative to UGCAUGU.
In the case of B19, the binding signal is reported as 0.0167 KA relative to UGCAUGU.
B20 was tested, and the binding signal was 0.00473 KA relative to UGCAUGU.
